{"source": "PubChem BioAssay (NCATS)", "key": {"[1]": {"assay": "Cytometric Cell-Based qHTS for Inhibitors of the mTORC1 Signaling Pathway in MEF (Tsc2-/-, p53-/-) Cells (AID 2660);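 on activity change, negative = inhibition: Tsc2 and p53 null MEFs carrying empty vector with compound for 24 h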", "settings": "mTORC1 pathway cytometry; series mostly up to 38.3 µM", "outline": "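Percent of cells positive for normalized phospho-S6 staining is reported, with the cutoff set from rapamycin (7.5 nM) versus DMSO wells. Tsc2-/-, p53-/- MEFs received compound for 24 hrs.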"}, "[2]": {"target": "Beta-2 adrenergic receptor (Homo sapiens) (UniProt P07550)", "sequence (P07550 whole entry, looked up)": "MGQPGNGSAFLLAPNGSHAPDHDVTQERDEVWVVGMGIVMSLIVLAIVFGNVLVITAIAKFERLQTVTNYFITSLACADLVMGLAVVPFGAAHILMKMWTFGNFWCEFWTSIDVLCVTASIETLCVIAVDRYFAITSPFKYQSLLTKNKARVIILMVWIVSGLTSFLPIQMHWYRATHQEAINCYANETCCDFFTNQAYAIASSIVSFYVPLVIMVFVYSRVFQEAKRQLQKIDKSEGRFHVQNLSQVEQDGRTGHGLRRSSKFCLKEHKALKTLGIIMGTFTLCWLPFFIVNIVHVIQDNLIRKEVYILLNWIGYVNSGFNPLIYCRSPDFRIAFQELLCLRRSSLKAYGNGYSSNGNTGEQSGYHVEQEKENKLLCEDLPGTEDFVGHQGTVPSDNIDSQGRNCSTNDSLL", "assay": "qHTS validation assay of beta-arrestin-biased ligands of beta2-adrenergic receptor (AID 485366)", "settings": "cell-based beta-arrestin recruitment to ADRB2, qHTS", "outline": "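Luminescence from a tTA-responsive luciferase, induced when recombinant beta-arrestin is recruited to recombinant beta2-AR, served as the agonism signal. Cells were exposed to compound for 18 hr at 37 degrees C; titrations spanned up to 46 microM.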"}, "[3]": {"target": "ATP-dependent 6-phosphofructokinase (Trypanosoma brucei brucei) (UniProt O15648)", "sequence (O15648 whole entry, looked up)": "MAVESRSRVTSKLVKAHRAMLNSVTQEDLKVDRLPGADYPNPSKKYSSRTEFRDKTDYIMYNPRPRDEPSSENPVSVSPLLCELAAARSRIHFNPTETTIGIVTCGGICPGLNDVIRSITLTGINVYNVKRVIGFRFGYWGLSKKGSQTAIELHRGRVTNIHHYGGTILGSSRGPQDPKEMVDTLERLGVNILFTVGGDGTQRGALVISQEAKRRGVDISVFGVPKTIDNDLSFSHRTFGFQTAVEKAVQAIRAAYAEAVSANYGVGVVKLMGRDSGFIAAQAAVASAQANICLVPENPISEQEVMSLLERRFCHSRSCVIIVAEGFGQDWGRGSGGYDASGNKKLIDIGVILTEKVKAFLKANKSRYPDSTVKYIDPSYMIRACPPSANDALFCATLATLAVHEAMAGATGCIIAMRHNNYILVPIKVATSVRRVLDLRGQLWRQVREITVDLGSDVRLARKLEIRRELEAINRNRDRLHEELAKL", "assay": "qHTS Validation Assay to Find Inhibitors of T. brucei phosphofructokinase (AID 485368)", "settings": "T. brucei PFK enzyme assay, qHTS 7-point titration; activity change, negative = inhibition: at 57.5 µM (top of the series); series mostly up to 57.5 µM", "outline": "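Activity was normalized between 1x (1.25 nM) PFK wells as no inhibition and enzyme-free wells as full inhibition, from luminescence after ADP-Glo detection of ADP made from 0.5 mM F6P and 0.1 mM ATP over 45 min.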"}, "[4]": {"assay": "Quantitative high throughput screen for delayed death inhibitors of the malarial parasite plastid, 96 hour incubation (AID 488745); further: nearly all actives have a fitted effect of over 70% in size", "settings": "Plasmodium falciparum growth; series mostly up to 28.7 µM", "outline": "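Infected erythrocytes were added to compound in Albumax-supplemented RPMI 1640 at 0.1% parasitemia and 2% hematocrit (final), incubated 96 h at 37 C under 5% CO2, then luciferase reagent was added and luminescence measured.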"}, "[5]": {"assay": "Cytometry Cell-Based qHTS for Inhibitors of the mTORC1 Signaling Pathway in MEF cells (AID 2668);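 on activity change, negative = inhibition: Tsc2-/- p53-/- mouse embryonic fibroblasts stably re-expressing wild-type Tsc2; percent cells positive for phospho-rpS6 Ser235/236 relative to propidium iodide stain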", "settings": "mTORC1 pathway readout; series mostly up to 38.3 µM", "outline": "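Phospho-rpS6 (Ser235/236) immunofluorescence over PI signal, scored as % positive cells using thresholds from 7.5 nM rapamycin and DMSO wells, after 24 h compound exposure of WT-Tsc2-rescued Tsc2-/-, p53-/- MEFs. PI cell count recorded for viability.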"}, "[6]": {"assay": "Validation screen for small molecules that induce DNA re-replication in MCF 10A normal breast cells (AID 463097); further: nearly all actives have a fitted effect of over 60% in size", "settings": "MCF 10A cells, DNA re-replication phenotype imaging; series mostly up to 46.1 µM", "outline": "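Read-out is Hoechst total nuclear intensity by fluorescence scanning imager, flagging increased high-DNA-content nuclei. Compounds were incubated with MCF 10A cells for 48 hr (37 C, 5% CO2) before 40 min staining.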"}, "[7]": {"assay": "qHTS Validation Assay to Find Inhibitors of Chronic Active B-Cell Receptor Signaling (AID 485345; active means well fitted curve in the direction sought with a large enough effect in the main read-out, with a control signal flat, not every such curve was filed as active; inconclusive means small, poorly fitted or top-dose-only effect, or effect the other way, or a change in a side signal; inactive means no such curve, though single readings can be large or run the other way;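 on activity change: 0% = untreated basal cells and 100% = 10 µM MG-132 proteasome inhibitor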)", "settings": "ABC-DLBCL cells, chronic BCR signaling reporter; activity change: CBG luciferase, at 46.1 µM (top of the series)", "outline": "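TMD8 ABC-DLBCL cells stably carrying doxycycline-inducible IkappaBalpha–green luciferase fusion plus unfused red luciferase; compounds 46 uM to 3 nM, 4 h at 37C with doxycycline. Corrected green/red luminescence ratio normalized to 10 uM MG-132 and basal cell wells; curves fitted.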"}, "[8]": {"assay": "Quantitative high throughput screen for delayed death inhibitors of the malarial parasite plastid, 48 hour incubation (AID 488752); further: nearly all actives have a fitted effect of over 65% in size", "settings": "Plasmodium falciparum growth; series mostly up to 28.7 µM", "outline": "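Readout is firefly luciferase luminescence from a reporter integrated into the parasite genome, with lower signal taken as inhibited growth. Infected red cells (0.1% parasitemia, 2% hematocrit final) are cultured with compound for one 48 h cycle at 37 C.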"}, "[9]": {"target": "Chromobox protein homolog 1 (Homo sapiens) (UniProt P83916)", "sequence (P83916 whole entry, looked up)": "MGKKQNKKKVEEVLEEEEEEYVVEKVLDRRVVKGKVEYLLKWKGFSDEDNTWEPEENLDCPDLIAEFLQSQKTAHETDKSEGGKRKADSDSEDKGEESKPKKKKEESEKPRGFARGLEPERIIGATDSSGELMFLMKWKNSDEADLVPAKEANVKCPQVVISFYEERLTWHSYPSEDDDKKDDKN", "assay": "qHTS Validation Assay for Inhibitors of HP1-beta Chromodomain Interactions with Methylated Histone Tails (AID 488953); further: nearly all actives have a fitted effect of over 50% in size", "settings": "HP1-beta chromodomain / methylated histone peptide binding assay; series mostly up to 114 µM", "outline": "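50 nM HP1-beta + 50 nM biotin-H3(1-18)K9me3, PBS pH 7.4, 0.01% Tween-20, 30 min RT; compound added, 30 min RT; AlphaScreen beads 10 ug/mL final, 30 min dark; luminescence read.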"}, "[10]": {"target": "Thioredoxin reductase 1, cytoplasmic (Rattus norvegicus) (UniProt O89049)", "sequence (O89049 whole entry, looked up)": "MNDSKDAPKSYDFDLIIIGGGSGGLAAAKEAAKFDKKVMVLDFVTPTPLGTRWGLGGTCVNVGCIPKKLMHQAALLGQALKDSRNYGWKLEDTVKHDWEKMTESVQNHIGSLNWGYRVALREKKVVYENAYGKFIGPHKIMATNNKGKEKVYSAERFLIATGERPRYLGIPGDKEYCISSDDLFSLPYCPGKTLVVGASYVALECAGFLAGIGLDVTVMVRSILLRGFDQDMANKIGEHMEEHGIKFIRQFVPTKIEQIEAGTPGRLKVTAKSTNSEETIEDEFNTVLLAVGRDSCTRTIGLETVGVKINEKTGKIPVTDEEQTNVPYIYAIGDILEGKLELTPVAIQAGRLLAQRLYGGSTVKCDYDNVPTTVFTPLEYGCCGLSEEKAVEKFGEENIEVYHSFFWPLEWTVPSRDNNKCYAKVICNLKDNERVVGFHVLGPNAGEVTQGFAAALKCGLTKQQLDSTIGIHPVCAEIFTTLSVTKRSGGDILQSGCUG", "assay": "qHTS Assay for Substrates of Mammalian Selenoprotein Thioredoxin Reductase 1 (TrxR1) (AID 488772)", "settings": "purified TrxR1, NADPH consumption substrate assay", "outline": "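Quantitative HTS in Tris-HCl buffer at pH 7.5 with EDTA and Tween-20, using rat TrxR1, 400 uM NADPH and 400 uM selenite (final). A fall in initial NADPH fluorescence relative to background marked substrate behaviour.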"}, "[11]": {"target": "DNA polymerase III PolC-type (Bacillus subtilis (strain 168)) (UniProt P13267)", "sequence (P13267 whole entry, looked up)": "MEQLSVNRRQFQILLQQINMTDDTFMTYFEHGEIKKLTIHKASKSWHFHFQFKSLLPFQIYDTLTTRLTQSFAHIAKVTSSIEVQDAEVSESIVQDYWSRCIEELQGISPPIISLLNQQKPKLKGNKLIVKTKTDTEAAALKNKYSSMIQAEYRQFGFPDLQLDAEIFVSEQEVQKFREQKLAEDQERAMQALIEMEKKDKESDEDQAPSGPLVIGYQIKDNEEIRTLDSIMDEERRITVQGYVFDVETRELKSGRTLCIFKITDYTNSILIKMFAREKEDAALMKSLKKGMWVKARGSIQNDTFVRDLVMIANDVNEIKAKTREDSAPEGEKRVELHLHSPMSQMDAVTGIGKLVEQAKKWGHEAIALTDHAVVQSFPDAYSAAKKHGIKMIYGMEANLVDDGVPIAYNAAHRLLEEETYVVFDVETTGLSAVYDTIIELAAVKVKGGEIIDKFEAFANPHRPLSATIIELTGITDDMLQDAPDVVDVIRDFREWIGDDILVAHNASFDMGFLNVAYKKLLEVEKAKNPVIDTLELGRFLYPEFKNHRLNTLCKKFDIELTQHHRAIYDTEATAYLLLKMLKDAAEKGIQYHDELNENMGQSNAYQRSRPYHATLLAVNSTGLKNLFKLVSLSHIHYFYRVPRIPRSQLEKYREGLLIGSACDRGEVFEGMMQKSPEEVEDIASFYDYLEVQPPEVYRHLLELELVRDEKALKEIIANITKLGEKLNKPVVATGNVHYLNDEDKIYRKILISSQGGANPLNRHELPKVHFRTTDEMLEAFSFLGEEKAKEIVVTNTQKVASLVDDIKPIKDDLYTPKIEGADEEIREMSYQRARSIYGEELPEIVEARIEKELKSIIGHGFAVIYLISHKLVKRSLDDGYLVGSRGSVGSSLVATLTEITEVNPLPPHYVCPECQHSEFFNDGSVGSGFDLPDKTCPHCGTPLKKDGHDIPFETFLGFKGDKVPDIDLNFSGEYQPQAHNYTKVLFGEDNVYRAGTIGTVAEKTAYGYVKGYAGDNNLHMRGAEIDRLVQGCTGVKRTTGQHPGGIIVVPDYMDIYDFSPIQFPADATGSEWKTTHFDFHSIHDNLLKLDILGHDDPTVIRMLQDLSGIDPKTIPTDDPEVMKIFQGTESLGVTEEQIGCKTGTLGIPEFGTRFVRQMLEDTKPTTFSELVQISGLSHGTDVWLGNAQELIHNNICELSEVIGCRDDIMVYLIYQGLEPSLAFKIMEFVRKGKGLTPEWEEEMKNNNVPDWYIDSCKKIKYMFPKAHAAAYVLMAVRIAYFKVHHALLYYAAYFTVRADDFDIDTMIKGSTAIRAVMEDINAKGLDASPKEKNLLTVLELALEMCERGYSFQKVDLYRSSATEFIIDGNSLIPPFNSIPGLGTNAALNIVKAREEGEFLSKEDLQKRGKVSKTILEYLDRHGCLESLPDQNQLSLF", "assay": "qHTS Validation Assay for the Inhibitors of DNA Replication in Gram-Positive Bacteria (AID 485295)", "settings": "Gram-positive bacterial DNA replication assay", "outline": "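Double-stranded DNA product detected by PicoGreen fluorescence after EDTA quench. Compound incubated with B. subtilis holoenzyme (PolC, beta subunit, SSB, primase) before substrate addition; primed replication of M13Gori with dNTPs and NTPs at room temperature; DMSO defines 0% inhibition.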"}, "[12]": {"target": "Transient receptor potential cation channel subfamily V member 1 (Homo sapiens) (UniProt Q8NER1)", "sequence (Q8NER1 whole entry, looked up)": "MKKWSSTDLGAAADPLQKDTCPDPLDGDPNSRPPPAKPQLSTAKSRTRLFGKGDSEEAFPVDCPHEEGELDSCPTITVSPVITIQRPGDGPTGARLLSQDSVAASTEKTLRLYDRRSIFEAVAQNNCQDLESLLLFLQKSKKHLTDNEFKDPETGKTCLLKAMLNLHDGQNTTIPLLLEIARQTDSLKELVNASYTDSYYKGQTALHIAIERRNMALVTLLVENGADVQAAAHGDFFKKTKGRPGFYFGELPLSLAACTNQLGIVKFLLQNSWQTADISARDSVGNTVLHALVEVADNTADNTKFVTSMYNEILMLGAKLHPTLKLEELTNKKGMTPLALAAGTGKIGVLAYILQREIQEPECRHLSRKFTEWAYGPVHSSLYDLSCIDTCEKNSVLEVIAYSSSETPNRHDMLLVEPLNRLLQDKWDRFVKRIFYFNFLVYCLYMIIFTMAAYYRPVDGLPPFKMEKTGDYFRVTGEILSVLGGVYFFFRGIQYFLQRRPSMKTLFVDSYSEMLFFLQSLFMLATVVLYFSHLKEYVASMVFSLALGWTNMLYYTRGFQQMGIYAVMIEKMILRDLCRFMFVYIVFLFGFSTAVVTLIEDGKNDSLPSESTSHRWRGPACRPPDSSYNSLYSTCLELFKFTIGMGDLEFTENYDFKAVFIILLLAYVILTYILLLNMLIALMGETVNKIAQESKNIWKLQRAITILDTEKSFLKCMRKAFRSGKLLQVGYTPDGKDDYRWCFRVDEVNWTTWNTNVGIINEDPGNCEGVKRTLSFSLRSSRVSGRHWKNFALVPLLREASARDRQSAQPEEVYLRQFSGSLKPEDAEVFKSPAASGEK", "assay": "HTS Assay for Compounds that Act as Enhancers of the Vanilloid Receptor 1 (AID 488979)", "settings": "TRPV1-expressing cells, enhancer of channel activity; stimulated with capsaicin at EC20", "outline": "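TRPV1 cells loaded with Fluo-8 calcium dye; compound added and Ca2+ signal (ex 480/em 520 nm) followed 3 min, then capsaicin at EC20 added and read 2 more min to detect enhancement.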"}}, "note": "The shares of active, inactive and inconclusive entries below differ from those in the screen. For some of these results: Potencies beside an inconclusive call are fits to weak or partial responses and may not hold up. Active and inactive are the calls of the source. Unless noted, the call rests on the fitted dose curve; in most records, active means well fitted curve in the direction sought with a large enough effect; inconclusive means small, poorly fitted or top-dose-only effect, or another doubt; inactive means no such curve, though single readings can be large; an effect the other way counts as inactive or inconclusive. Potency means the concentration at half of the fitted maximal effect; tags describe the fitted curve by direction and shape."}
{"compound": "CC(C)C[C@H](NC(=O)[C@@H](O)[C@H](N)Cc1ccccc1)C(=O)O", "values": [{"measurement": "Potency", "setting": "[1]", "result": "inactive"}, {"measurement": "Potency", "setting": "[2]", "result": "inconclusive: 13 µM [rising, partial curve]"}, {"measurement": "Potency", "setting": "[3]", "result": "inconclusive: 8.49 µM [falling, single point]"}, {"measurement": "Potency", "setting": "[4]", "result": "active: 0.37 µM"}]}
{"compound": "O=C(c1ccc(OCCN2CCCCC2)cc1)c1c(-c2ccc(O)cc2)sc2cc(O)ccc12", "values": [{"measurement": "Potency", "setting": "[1]", "result": "inconclusive: 26.1 µM [falling, single point]"}, {"measurement": "Potency", "setting": "[5]", "result": "inconclusive: 14.7 µM [falling, single point]"}, {"measurement": "Potency", "setting": "[6]", "result": "active: 11.2 µM"}, {"measurement": "Potency", "setting": "[7]", "result": "active: 20.6 µM"}, {"measurement": "Potency", "setting": "[3]", "result": "inconclusive: 33.8 µM [activator, single point]"}, {"measurement": "Potency", "setting": "[4]", "result": "inconclusive: 13.1 µM [inhibitor, single point]"}, {"measurement": "Potency", "setting": "[8]", "result": "inconclusive: 13.1 µM [inhibitor, single point]"}, {"measurement": "Potency", "setting": "[9]", "result": "active: 31.6 µM"}]}
{"compound": "COc1cc2ncnc(Nc3cccc(Cl)c3)c2cc1OC", "values": [{"measurement": "Potency", "setting": "[5]", "result": "inactive"}, {"measurement": "Potency", "setting": "[6]", "result": "inconclusive: 1 µM [activator, full curve]"}, {"measurement": "Potency", "setting": "[3]", "result": "inconclusive: 0.849 µM [activator, full curve, poor fit]"}]}
{"compound": "COc1ccc(C2CNC(=O)C2)cc1OC1CCCC1", "note": "(stereo not given)", "values": [{"measurement": "Potency", "setting": "[5]", "result": "inactive"}, {"measurement": "activity change", "setting": "[7]", "result": "inconclusive: -37.2%"}, {"measurement": "Potency", "setting": "[10]", "result": "inconclusive: 7.52 µM [inhibitor, partial curve]"}]}
{"compound": "C[n+]1cc2c3c(ccc2c2ccc4cc5c(cc4c21)OCO5)OCO3", "values": [{"measurement": "Potency", "setting": "[1]", "result": "inconclusive: 3.29 µM [falling, full curve, poor fit]"}, {"measurement": "Potency", "setting": "[6]", "result": "inconclusive: 2.51 µM [activator, partial curve]"}, {"measurement": "Potency", "setting": "[11]", "result": "active: 8.44 µM"}, {"measurement": "Potency", "setting": "[3]", "result": "inconclusive: 0.0478 µM [falling, full curve, poor fit]"}, {"measurement": "Potency", "setting": "[4]", "result": "inconclusive: 5.22 µM [inhibitor, partial curve, poor fit]"}, {"measurement": "Potency", "setting": "[8]", "result": "inconclusive: 20.8 µM [inhibitor, single point]"}, {"measurement": "Potency", "setting": "[12]", "result": "inconclusive: 12.6 µM [activator, single point]"}]}
